Data reported in PubChem BioAssay AID624296 (National Center for Advancing Translational Sciences (NCATS), 2012).
Hit rate of the full screen: of about 350,000 compounds, about 9,900 (2.8%) were called active. Inconclusive means that the source gave no clear call. Such entries were picked first, then a sample of the others. Calls come from the whole dose curve; as a rule, active = well fitted activation curve with a large enough effect; inconclusive = small, poorly fitted or top-dose-only effect; inactive = no such curve, though single readings can be large or run the other way. No potency is given beside an inconclusive call; the fits are too rough.

assay: A quantitative high throughput screen for small molecules that induce DNA re-replication in MCF 10a normal breast cells.; note: nearly all actives have a fitted effect of over 50% in size; for activity, positive = re-replication: % of control where 0% means no effect; details: MCF 10A DNA re-replication, Hoechst nuclear intensity, 48 h; activity, positive = re-replication: at 46.1 µM (top of the series)
Potency is the fitted concentration of half-maximal effect; tags give direction and shape of the fitted curve.

SMILES | Potency | activity, positive = re-replication
CN1C(=O)/C(=C/c2ccc(OCc3ccccc3F)cc2)NC1=S | inconclusive [activator, single point] | –
CC(C(=O)O)n1cc(Cl)cn1 (stereo unspecified) | inconclusive [activator, full curve, poor fit] | –
CCC1CCCCN1CCCNC(=O)c1ccc(/C=C2/Sc3ccccc3NC2=O)cc1 (stereo unspecified) | inconclusive [activator, single point] | –
CCOC(=O)n1c(=O)oc2cc(S(=O)(=O)N3CCCCC3)ccc21 | inconclusive [activator, single point] | –
CCOc1ccc(CNC(=O)CCc2cn(Cc3ccccc3)c3ccccc23)cc1 | inconclusive [activator, single point] | –
O=C(/C=C/c1ccc(OCc2c(F)cccc2Cl)cc1)N1CCOCC1 | inconclusive [activator, partial curve, poor fit] | –
O=c1[nH]nc(CNc2ccc(Cl)cc2Cl)c2ccccc12 | inconclusive [activator, single point] | –
C=CCc1cccc(C=Nc2cc(Br)ccc2O)c1O | inconclusive [activator, partial curve] | –
Cc1nc(COc2cccc(Cl)c2)sc1C(=O)/C=C/N(C)C | inconclusive [activator, single point] | –
CC(=O)Oc1ccc(-c2csc(Nc3ccc(Cl)cn3)n2)cc1 | inconclusive [activator, partial curve, poor fit] | –
CCOc1ccc(N(C(=O)c2snc(C(N)=O)c2N)C(C(=O)NC2CCCC2)c2ccncc2)cc1 (stereo unspecified) | – | inactive: 11.8%
Cc1cccc(-c2nc(CS(=O)CC(=O)NC(C)CCc3ccccc3)c(C)o2)c1 (stereo unspecified) | inconclusive [activator, partial curve, poor fit] | –
Fc1ccc(N/N=C2/CCSc3sccc32)c(F)c1 | – | inactive: 0.519%
Cc1ccc(S(=O)(=O)N(C)c2cc(S(=O)(=O)N3CCC(C)CC3)c(C)cc2C)cc1 | inconclusive [activator, partial curve, poor fit] | –
CCCCOc1ccc(Cl)cc1CSc1n[nH]c(C)n1 | inconclusive [activator, full curve, poor fit] | –
COc1ccc2c(c1)OC[C@H]1[C@H]2N2C(=O)c3cc(C)ccc3NC(=O)[C@@]2(C)[C@H]1c1ccccc1 | inconclusive [activator, single point] | –
Cc1ccc(-n2c(SCC(N)=O)nc3c(c2=O)C2(CCCC2)Cc2ccccc2-3)cc1 | inconclusive [activator, single point] | –
O=C(c1ncc[nH]1)c1cccs1 | – | inactive: 4.59%
Cc1nc(=S)c2ccccc2[nH]1 | – | inactive: -1.31%
Cc1ccc(/C=N/NC(=O)CNC(=O)c2cccc([N+](=O)[O-])c2C)o1 | – | inactive: 0.727%
CCc1ccc2[nH]c3nc(N/N=C/c4cccc(O)c4)nnc3c2c1 | inconclusive [activator, full curve] | –
COc1ccc(Nc2nc(N)nc(CN3CCc4ccccc4C3)n2)cc1 | inconclusive [activator, single point] | –

SMILES | Potency | activity, positive = re-replication
COc1cccc(-c2ccc3ncnc(NCc4cccc(C)c4)c3c2)c1 | inconclusive [activator, single point] | –
CCOC(=O)C1=C(C)NC(=S)N(C(C)=O)C1c1ccc(OC)c(OC)c1 (stereo unspecified) | inconclusive [activator, single point] | –
O=C(COc1ccc(Cl)cc1)N/N=C/c1cccc2cccnc12 | inconclusive [activator, partial curve, poor fit] | –
COc1ccc(N2CCN(Cc3nc4c(c(=O)n(C)c(=O)n4C)n3C(C)C(C)=O)CC2)cc1 (stereo unspecified) | inconclusive [activator, full curve, poor fit] | –
CCOC(=O)c1ccc(Nc2ncnc3ccc(C)cc23)cc1 | inconclusive [activator, partial curve, poor fit] | –
C/C(=N/NC(=O)Cc1cccn1C)c1ccccc1 | – | inactive: 0.69%
CCCNC(=O)C(Cc1cccc(OC)c1)NC(=O)c1ccc(C(C)(C)C)cc1 (stereo unspecified) | inconclusive [activator, single point] | –
O=C(NCCc1ccc(F)cc1)c1ccncc1 | inconclusive [activator, full curve, poor fit] | –
NC(=O)c1nsc(C(=O)N(c2ccccc2)C(C(=O)NCc2ccc(F)cc2)c2ccc(O)cc2)c1N (stereo unspecified) | active: 13 µM | –
O=C(O)Cc1csc(-c2cccc(Oc3ccccc3)c2)n1 | inconclusive [activator, full curve, poor fit] | –
COc1ccccc1C(CNC(=O)c1cccc(S(=O)(=O)Nc2ccc(C)cc2)c1)N1CCCC1 (stereo unspecified) | – | inactive: 1.7%
COc1ccc2nc(-c3ccccn3)[nH]c2c1 | – | inactive: 1.93%
O=C(NCc1ccccc1)C12CN(Cc3ccccc3)CC1C(c1cccc([N+](=O)[O-])c1)=NO2 (stereo unspecified) | – | inactive: -0.299%
CC1=C(CC/C(C)=N/NC(N)=S)C(C)(C)CCC1 | active: 12.6 µM | –
CCCCN1C(=N)N([C@@H](C)CN2CCC[C@H]2CN2C(N)=NC[C@@H]2Cc2ccccc2)C[C@H]1[C@H](C)CC | – | inactive: -0.4%
N#CC(C(=O)C1CCCCC1)c1nc2ccccc2[nH]1 (stereo unspecified) | inconclusive [activator, partial curve, poor fit] | –
COc1ccc2cc(CO)c3cc(OC)c(OC)cc3c2c1 | – | inactive: 12%
CC(C)c1cc(C(C)C)c(S(=O)(=O)N2CCNCC2)c(C(C)C)c1 | inconclusive [activator, single point] | –
COc1ccc(C(=O)N/N=C(\C)c2ccccn2)cc1OC | inconclusive [activator, full curve] | –
CC(C)CC(NC(=O)OCc1ccccc1)C(=O)NC(Cc1ccccc1)C(=O)CCl (stereo unspecified) | active: 7.31 µM | –
O=C(CCc1nc2ccccc2c(=O)[nH]1)OCc1ccc(-c2ccccc2)cc1 | inconclusive [activator, single point] | –
O=C1CN(C(=O)c2ccc(Br)o2)C(c2ccc(F)cc2)c2cc(Cl)ccc2N1 (stereo unspecified) | inconclusive [activator, single point] | –

SMILES | Potency | activity, positive = re-replication
Cn1ccnc1SCC(=O)Nc1ccc(F)c([N+](=O)[O-])c1 | inconclusive [activator, partial curve, poor fit] | –
CCOC(=O)C1CCCN(C(=O)Cc2ccc(C)cc2)C1 (stereo unspecified) | inconclusive [activator, single point] | –
Cc1ccc(NC(=O)c2ncn(CCCNCCCN(C)C)n2)cc1C | inconclusive [activator, single point] | –
COc1cc(OC)cc(-c2sc3ccc(OC)cc3c2C#CC2(N)CCCCC2)c1 | active: 14.6 µM | –
CCCc1nnc(NC(=O)COc2ccc3c(c2)OCO3)s1 | inconclusive [activator, partial curve, poor fit] | –
COc1ccc(N2CCN(C(=O)c3cccc(NS(=O)(=O)c4cccc(F)c4)c3)CC2)cc1 | inconclusive [activator, partial curve, poor fit] | –
COc1cc(N/N=C(\C)c2ccc(O)c(C)c2)nc(-c2ccccc2)n1 | inconclusive [activator, single point] | –
C=C(C)Cn1c(SCC(=O)N/N=C/c2ccccc2)nc2ccccc2c1=O | inconclusive [activator, single point] | –
COCC(=O)N(C)C[C@H]1N[C@@](C)(C(=O)OC)[C@H]2C(=O)N(Cc3ccccc3)C(=O)[C@@H]12 | inconclusive [activator, partial curve, poor fit] | –
CCOC(=O)c1c(-c2ccc(-c3ccccc3)cc2)csc1NC(=O)CCN1CCOCC1 | active: 8.2 µM | –
Cc1cccc(Nc2nnc(SCC(=O)Nc3cccc(S(=O)(=O)N4CCCCC4)c3)s2)c1 | inconclusive [activator, single point] | –
O=[N+]([O-])c1ccc(NCc2ccc3c(c2)OCO3)cc1 | – | inactive: -0.878%
O=C(COc1ccc(C(=O)c2ccccc2)cc1)NCc1ccc(F)cc1 | active: 4.11 µM | –
COc1ccc(OC)c(NC(=O)C2CC(=O)N(CCc3ccc(F)cc3)C2)c1 (stereo unspecified) | inconclusive [activator, partial curve, poor fit] | –
CC(C)CC(=O)OC(C)(C)[C@@H]1Cc2c(ccc3ccc(=O)oc23)O1 | inconclusive [activator, single point] | –
CCOc1ccc2oc(C(=O)N3CCN(c4ccccn4)CC3)c(C)c2c1 | inconclusive [activator, partial curve, poor fit] | –
Nc1nonc1-n1nnc(C(=O)N/N=C/c2ccc(Cl)cc2Cl)c1CN1CCOCC1 | – | inactive: 0.11%
CC(=O)c1ccccc1OCCCOc1cccc2cccnc12 | – | inactive: 2.96%
Cc1ccc(Cl)cc1N1CCN(C(=O)c2ccc(CS(=O)Cc3ccc(Cl)cc3)o2)CC1 (stereo unspecified) | inconclusive [activator, single point] | –
CC(Oc1ccccc1F)C(=O)NNC(=O)C1CC(=O)N(c2ccc3c(c2)OCCO3)C1 (stereo unspecified) | – | inactive: -17.5%
CC(C)(C)NC(=O)[C@]1(C)CCC[C@@]2(C)C3CC[C@@]4(C)C[C@]3(CCC21)CC4=O (stereo partly specified) | inconclusive [activator, partial curve, poor fit] | –
Cc1cc(C)n(Cc2ccc(C(=O)N/N=C/c3ccc(-c4ccc([N+](=O)[O-])cc4)o3)o2)n1 | inconclusive [activator, single point] | –
